Usually pEC50 stands for the negative decadic logarithm of the EC50, by convention in mol/L. Low readings indicate a high EC50, high ones a low EC50. As usually defined, the EC50 is the concentration needed to bring the measured effect to its halfway point.

Molecules are shown by their SMILES. pEC50: −log10 of the molar value. Like-named read-outs stand apart in the source and are kept apart here.

This assay concerns the target human CB2 receptor (hCB2) (Homo sapiens, UniProt P34972). The assay can be described thus: cell-based. Type of assay: cell-based. Conditions: for +/− HCB2: agonist or inverse agonist at hCB2.

Chain of human CB2 receptor (hCB2) (P34972 whole entry): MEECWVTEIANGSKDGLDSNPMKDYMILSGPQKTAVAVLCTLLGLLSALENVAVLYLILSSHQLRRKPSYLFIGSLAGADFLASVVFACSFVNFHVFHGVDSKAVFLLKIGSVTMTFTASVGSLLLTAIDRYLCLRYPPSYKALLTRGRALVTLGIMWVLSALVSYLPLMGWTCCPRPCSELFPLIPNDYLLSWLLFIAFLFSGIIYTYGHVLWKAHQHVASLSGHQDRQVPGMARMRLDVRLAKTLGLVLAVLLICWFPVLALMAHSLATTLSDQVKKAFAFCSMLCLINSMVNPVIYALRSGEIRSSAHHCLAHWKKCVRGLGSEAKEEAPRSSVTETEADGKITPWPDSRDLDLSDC

On to `CC(C)(C)c1noc([C@@H](NC(=O)c2nc(-c3ccccc3)n3c2CN(C2CC2)CC3)C(C)(C)C)n1` [Compound 284, (S)-N-(1-(3-tert-butyl-1,2,4-oxadiazol-5-yl)-2,2-dimethylpropyl)-7-cyclopropyl-3-phenyl-5,6,7,8-tetrahydroimidazo[1,5-a]pyrazine-1-carboxamide], for which the “+/− HCB2” value is on record as “+”.

Consider `CNC(=O)[C@@H](NC(=O)c1nc(-c2ccc(C)o2)n2c1CN(C)CCC2)C(C)(C)C` [Compound 443, (S)-N-(3,3-dimethyl-1-(methylamino)-1-oxobutan-2-yl)-8-methyl-3-(5-methylfuran-2-yl)-6,7,8,9-tetrahydro-5H-imidazo[1,5-a][1,4]diazepine-1-carboxamide], for which the pEC50 was less than 5.00.

Consider `CNC(=O)[C@@H](NC(=O)c1nc(-c2c(C)noc2C)n2c1CN(C)CCC2)C(C)(C)C` [Compound 442, N-((S)-3,3-dimethyl-1-(methylamino)-1-oxobutan-2-yl)-3-(3,5-dimethylisoxazol-4-yl)-8-methyl-6,7,8,9-tetrahydro-5H-imidazo[1,5-a][1,4]diazepine-1-carboxamide], for which the “+/− HCB2” value is on record as “+”. On to `CNC(=O)c1ccc(NC(=O)c2nc(-c3ccc(Cl)cc3F)n3c2CN(C)CC3)cc1` [Compound 218], for which the EC50 (groups >100 nM-10 μM and >10 μM, cAMP, CHO-K1 hCB2, read-out: EC50 HCB2) is greater than 10000 nM.

The record behind these values is patent US7517874B2 (priority 2007, dated 2009).
